# Measured values taken from ChEMBL document CHEMBL5606458, “ASAP - ZIKV NS2B-NS3 protease fluorescence single point” (2024).
# Out of some 2,700 compounds screened, about 160 (5.9%) showed an effect of 50% or more. Some of the results follow.
# Target: Nonstructural protein 3 (Zika virus) (UniProt A0A024AXB9)
# [1] = PRVABC59, Concentration 50.0 uM, Number of replicates 1.0
# [2] = PRVABC59, Concentration 15.0 uM, Number of replicates 1.0
# UniProt A0A024AXB9, sequence (A0A024AXB9 as listed by the source): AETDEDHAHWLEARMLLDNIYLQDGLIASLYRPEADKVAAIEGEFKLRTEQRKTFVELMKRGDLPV
compound,measurement,setting,value
O=Cc1ccc(N2CCC(C(=O)NCCc3ccc(-c4ccccc4)cc3)CC2)cc1,inhibition,[1],20.5%
O=C(c1cc(Cl)ccc1NS(=O)(=O)c1ccc(Oc2ccccc2Cl)cc1)N(CCN1CCOCC1)Cc1ccco1,inhibition,[2],9.78%
O=C(Nc1ncc(Br)nc1Cl)c1cc(Cl)ccc1NS(=O)(=O)c1ccc(Oc2ccccc2Cl)cc1,inhibition,[2],16.8%
CC(C)Nc1nc2cc(NC(=O)Cc3cocn3)ccc2[nH]1,inhibition,"PRVABC59, Concentration 49.5 uM, Number of replicates 2.0, Standard deviation 2.1343169986475528 %",-2.25%
same,inhibition,"PRVABC59, Concentration 99.01 uM, Number of replicates 2.0, Standard deviation 1.9872598164035848 %",-3.65%
same,inhibition,"PRVABC59, Concentration 198.0 uM, Number of replicates 2.0, Standard deviation 2.1720750958230077 %",-3.27%
C[C@@H](Cc1ccc(O)cc1)NC(=O)c1cc(Cl)ccc1NS(=O)(=O)c1ccc(Oc2ccccc2Cl)cc1,inhibition,[2],33.3%
COC(=O)c1csc(Cn2ncc(C3CCNCC3)c2C)n1,inhibition,"PRVABC59, Concentration 49.5 uM, Number of replicates 2.0, Standard deviation 0.08147761319168417 %",-4.35%
same,inhibition,"PRVABC59, Concentration 99.01 uM, Number of replicates 2.0, Standard deviation 1.037349592805416 %",-3.04%
same,inhibition,"PRVABC59, Concentration 198.0 uM, Number of replicates 2.0, Standard deviation 2.1780367675448735 %",-0.655%
O=C(c1cc(Cl)ccc1NS(=O)(=O)c1ccc(Oc2ccccc2Cl)cc1)N1CCN(c2ccc(C(F)(F)F)cc2)CC1,inhibition,[2],8.46%
O=Cc1ccc(N2CCC(C(=O)Nc3cnc4sccn4c3=O)CC2)cc1,inhibition,[1],9.78%
Cc1cnccc1NC(=O)c1ccn(CC(C)C)n1,inhibition,"PRVABC59, Concentration 49.5 uM, Number of replicates 2.0, Standard deviation 0.9161267428246855 %",-1.61%
same,inhibition,"PRVABC59, Concentration 99.01 uM, Number of replicates 2.0, Standard deviation 1.0850438095173138 %",-1.8%
same,inhibition,"PRVABC59, Concentration 198.0 uM, Number of replicates 2.0, Standard deviation 1.387107269831935 %",-1.13%
COc1ccc([C@@H]2CCCN2C(=O)C2CCN(c3ccc(C=O)cc3)CC2)cc1,inhibition,[1],22.1%
O=C(Nc1ccc(C(F)(F)F)cn1)c1cc(Cl)ccc1NS(=O)(=O)c1ccc(Oc2ccccc2Cl)cc1,inhibition,[2],43.9%
N[C@@H]1CCCC[C@H]1C(=O)Nc1cccc2cccnc12,inhibition,"PRVABC59, Concentration 99.9 uM, Number of replicates 2.0, Standard deviation 1.8980185851288 %",-8.2%
COc1cc(Cc2cnc(N)c(C(F)F)c2)nc(N2CCNCC2)n1,inhibition,"PRVABC59, Concentration 49.5 uM, Number of replicates 2.0, Standard deviation 2.109695189069125 %",1.97%
same,inhibition,"PRVABC59, Concentration 99.01 uM, Number of replicates 2.0, Standard deviation 2.350656772053972 %",3.23%
same,inhibition,"PRVABC59, Concentration 198.0 uM, Number of replicates 2.0, Standard deviation 2.281444313247443 %",3.81%
O=C(Nc1cnn2c1CNCC2)c1cccc2ncccc12,inhibition,"PRVABC59, Concentration 49.5 uM, Number of replicates 2.0, Standard deviation 2.8356175456895425 %",-4.01%
same,inhibition,"PRVABC59, Concentration 99.01 uM, Number of replicates 2.0, Standard deviation 4.192539000273596 %",-3.8%
same,inhibition,"PRVABC59, Concentration 198.0 uM, Number of replicates 2.0, Standard deviation 2.5418114432516155 %",-2.88%
Cc1cnccc1NC(=O)c1cccn(C[C@@H](C)CN)c1=O,inhibition,"PRVABC59, Concentration 49.5 uM, Number of replicates 2.0, Standard deviation 0.2332713425650035 %",5.31%
same,inhibition,"PRVABC59, Concentration 99.01 uM, Number of replicates 2.0, Standard deviation 0.8664360298988266 %",7.03%
same,inhibition,"PRVABC59, Concentration 198.0 uM, Number of replicates 2.0, Standard deviation 1.2048077884836883 %",10.4%
O=Cc1ccc(N2CCC(C(=O)Nc3cc(C(F)(F)F)ccn3)CC2)cc1,inhibition,[1],19.4%
O=C(Nc1nc(Cl)nc2nc[nH]c12)c1cc(Cl)ccc1NS(=O)(=O)c1ccc(Oc2ccccc2Cl)cc1,inhibition,[2],22.5%
Cc1cnccc1NC(=O)c1cc(N2CCCC2)ncn1,inhibition,"PRVABC59, Concentration 49.5 uM, Number of replicates 2.0, Standard deviation 2.173764594392415 %",-2.9%
same,inhibition,"PRVABC59, Concentration 99.01 uM, Number of replicates 2.0, Standard deviation 3.074732675241127 %",-1.3%
same,inhibition,"PRVABC59, Concentration 198.0 uM, Number of replicates 2.0, Standard deviation 4.9093569632660845 %",-9.37%
C[C@@H](c1ccccc1)N(C(=O)c1cc(Cl)ccc1NS(=O)(=O)c1ccc(Oc2ccccc2Cl)cc1)[C@@H](C)c1ccccc1,inhibition,[2],20.6%
O=C(c1cc(Cl)ccc1NS(=O)(=O)c1ccc(Oc2ccccc2Cl)cc1)N1CCN(c2ccc([N+](=O)[O-])cc2C(F)(F)F)CC1,inhibition,[2],26.7%
CC(CNC(=O)c1cc(Cl)ccc1NS(=O)(=O)c1ccc(Oc2ccccc2Cl)cc1)(c1ccccc1)c1ccccc1,inhibition,[2],31.7%
Cc1cccc(CN2CCN(C(=O)C3CCN(c4ccc(C=O)cc4)CC3)CC2)c1,inhibition,[1],21.6%
CC[C@]1(c2ccc(NC(=O)c3cc(Cl)ccc3NS(=O)(=O)c3ccc(Oc4ccccc4Cl)cc3)cc2)CCC(=O)NC1=O,inhibition,[2],47.5%
